Test results reported in PubChem BioAssay AID504466 (National Center for Advancing Translational Sciences (NCATS), 2011).
Out of some 330,000 compounds screened, about 4,200 (1.3%) were called active. Inconclusive means that the source gave no clear call. Such entries were picked first, then a sample of the others. The call rests on the fitted dose curve; in most records, active means well fitted activation curve with a large enough effect; inconclusive means small, poorly fitted or top-dose-only effect; inactive means no such curve, though single readings can be large or run the other way. Where the call is inconclusive, the potency comes from a doubtful curve fit.

Test: qHTS screen for small molecules that induce genotoxicity in human embryonic kidney (HEK293T) cells expressing luciferase-tagged ELG1; further: nearly all actives have a fitted effect of over 60% in size; on activity change, positive = activation: % of control where 0% means no effect
Conditions: HEK293T ELG1-luciferase reporter, luminescence, 16 h; series mostly up to 46 µM; activity change, positive = activation: at the top concentration
In short: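 DMSO vehicle served as control against compound-treated ELG1-luciferase HEK293T cells; exposure lasted 16 hr at 37 °C and 5% CO2, followed by ONE-Glo luminescence detection after 30 min.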
Potency means the concentration at half of the fitted maximal effect; tags describe the fitted curve by direction and shape.

| SMILES | Potency | activity change, positive = activation |
| --- | --- | --- |
| COc1cc(/C=C/C(=O)OCC(=O)N2CCCC2)cc(OC)c1OC | inconclusive: 23.1 µM [activator, partial curve, poor fit] |  |
| CCCC(=O)Nc1ccc2oc(-c3cncc(Br)c3)nc2c1 | active: 9.2 µM |  |
| O=C(NCCCN1CCOCC1)C(=O)N/N=C/c1c2ccccc2cc2ccccc12 | inconclusive: 29.1 µM [activator, partial curve, poor fit] |  |
| COc1ccc(CNc2ccc3c(c2)nc(C)n3C)cc1 | inconclusive: 9.2 µM [activator, partial curve] |  |
| Cc1cc(C(=O)NCC(c2ccco2)N2CCCC2)c2ccccc2n1 (centres undefined) |  | inactive: 1.8% |
| COc1ccc(NC(=O)c2cnc3n(c2=O)CCS3)cc1OC | inconclusive: 18.4 µM [activator, partial curve, poor fit] |  |
| CNC(=O)/C(C#N)=C/c1cccc(Oc2ccccc2)c1 | inconclusive: 25.9 µM [activator, partial curve, poor fit] |  |
| COc1ccc(Cc2nnc(NC(=O)c3cccs3)s2)cc1 | inconclusive: 29.1 µM [activator, single point] |  |
| Cc1ccc(N2NC(C)(c3cccs3)NC2=S)cc1 (centres undefined) | inconclusive: 20.6 µM [activator, partial curve] |  |
| c1ccc(-c2nc(C3CCCCC3)no2)cc1 | active: 20.6 µM |  |
| CCN(CC)CCCCCCCCOC(=O)c1cc(OC)c(OC)c(OC)c1 | active: 18.3 µM |  |
| CCOC(=O)Cc1csc(NC(=O)C(C)(C)C)n1 | inconclusive: 20.6 µM [activator, single point] |  |
| Cc1ccc(S(=O)(=O)/N=C(/NC(=S)Nc2ccccc2)c2ccccc2)cc1 | inconclusive: 3.66 µM [activator, partial curve, poor fit] |  |
| COc1ccc(CN(C)c2ccc(S(=O)(=O)N3CCN(C)CC3)cc2[N+](=O)[O-])cc1OC |  | inactive: 3.42% |
| CSCCC(=O)Nc1ccc(C(C)=O)cc1 | inconclusive: 29.1 µM [activator, single point] |  |
| COc1cccc(CNC(=O)C(C(=O)NCc2cccc(OC)c2)c2ncc(C(F)(F)F)cc2Cl)c1 | inconclusive: 32.6 µM [activator, partial curve, poor fit] |  |
| CC1CCN(C(=O)Cn2c(=O)n(Cc3ccco3)c(=O)c3sccc32)CC1 |  | inactive: -0.472% |
| O=C(CSc1nncc2ccccc12)Nc1ccc(C(=O)O)cc1 |  | inactive: 2.26% |
| Nc1nc(Cl)nc2c1ncn2C1CC(O)C(CO)O1 (centres undefined) | inconclusive: 0.58 µM [activator, single point] |  |
| Cc1cc(C)c2[nH]c(=O)c(CN(Cc3ccccc3)C(=S)NCCCN(C)C)cc2c1 | inconclusive: 18.3 µM [activator, single point] |  |
| CCc1ccc(NC(=O)c2ccccc2SC)cc1 | inconclusive: 18.3 µM [activator, partial curve] |  |
| Fc1ccccc1OCCSc1nc2ccccc2o1 | inconclusive: 20.6 µM [activator, partial curve, poor fit] |  |

| SMILES | Potency | activity change, positive = activation |
| --- | --- | --- |
| COc1cc(/C=C2\C(=N)N3N=C(S(C)(=O)=O)SC3=NC2=O)ccc1OCCOc1ccccc1C |  | inactive: 0.744% |
| CSc1ccc(NC(=O)Nc2ccccc2C(N)=O)cc1 | inconclusive: 20.6 µM [activator, partial curve, poor fit] |  |
| COc1ccc2cc(OCC(=O)NNC(=O)Nc3ccc(C(C)=O)cc3)ccc2c1 | inconclusive: 20.6 µM [activator, partial curve, poor fit] |  |
| Cn1c(=O)cc(OCCCC(=O)N2CCN(c3ccccn3)CC2)c2ccccc21 | inconclusive: 16.4 µM [activator, single point] |  |
| O=C(Cn1cnc2c(NCc3ccccc3)ncnc21)NCc1ccc2[nH]ccc2c1 | inconclusive: 8.2 µM [activator, partial curve, poor fit] |  |
| NS(=O)(=O)c1ccc(C(=O)Nc2ccc(-c3nc4cccnc4s3)cc2)cc1 | inconclusive: 11.6 µM [activator, partial curve] |  |
| O=C(O)c1ccc(N2CC3CC(C2)c2cccc(=O)n2C3)c(NC(=S)Nc2ccc(Br)cc2)c1 (centres undefined) |  | inactive: -0.579% |
| O=C(Cn1ccc(NC(=O)OCc2ccccc2)nc1=O)NCCCc1ccccc1 | inconclusive: 16.4 µM [activator, partial curve, poor fit] |  |
| CCCSc1ccc2nc(NC(=O)OC)[nH]c2c1 |  | inactive: -1.33% |
| CCOC(=O)c1sc2nc(-c3ccccc3)ccc2c1N | active: 0.517 µM |  |
| CNc1nc(SCC(=O)Nc2ccc(Cl)c(Cl)c2)nc(N2CCOCC2)n1 | inconclusive: 20.6 µM [activator, partial curve, poor fit] |  |
| CC1CCc2[nH]c3ccc(C(=O)NCC4CCCO4)cc3c2C1 (centres undefined) |  | inactive: 7.87% |
| Cc1nnc2n1N=C(c1ccc(OC(F)F)cc1)C(C)S2 (centres undefined) | inconclusive: 25.9 µM [activator, partial curve, poor fit] |  |
| COc1ccc(NC(=O)C2CCCN(S(=O)(=O)c3ccc(-n4cnnn4)cc3)C2)cc1 (centres undefined) | inconclusive: 32.6 µM [activator, partial curve, poor fit] |  |
| COc1ccc(OC)c(NS(=O)(=O)c2cc3c4c(c2)CCN4C(=O)CC3)c1 |  | inactive: 1.17% |
| COC1CCN(Cc2cn(Cc3ccccc3)nc2-c2cc3ccccc3o2)CC1 |  | inactive: -5.3% |
| COc1ccc(NC(=S)Nc2ccccn2)cc1 | inconclusive: 10.3 µM [activator, partial curve] |  |
| Cc1cccc(-n2ncc3c(NCc4cccnc4)ncnc32)c1 | inconclusive: 11.6 µM [activator, partial curve] |  |
| CCOc1ccc(N(CC(=O)Nc2ccc(C)c(C)c2)S(C)(=O)=O)cc1 | inconclusive: 16.4 µM [activator, partial curve] |  |
| C/C=C/c1ccc(OCC(=O)Nc2ccc(OC)c(OC)c2)c(OC)c1 |  | inactive: -7.79% |
| Cc1ccc(CN2CCN(CC(=O)N/N=C/c3ccccc3F)CC2)cc1 | inconclusive: 14.6 µM [activator, partial curve, poor fit] |  |
| C#CCSc1nnc(-c2ccc(OC)cc2)o1 | active: 10.3 µM |  |
